# Whole data set: some 33,000 sequences, median “E-score (-0.5 to 0.5)” near -0.035, cut for the highest 2% near 0.34. The list shows a part of the results.
# Target: T1, Mot3 (UniProt P54785)
# T1 sequence: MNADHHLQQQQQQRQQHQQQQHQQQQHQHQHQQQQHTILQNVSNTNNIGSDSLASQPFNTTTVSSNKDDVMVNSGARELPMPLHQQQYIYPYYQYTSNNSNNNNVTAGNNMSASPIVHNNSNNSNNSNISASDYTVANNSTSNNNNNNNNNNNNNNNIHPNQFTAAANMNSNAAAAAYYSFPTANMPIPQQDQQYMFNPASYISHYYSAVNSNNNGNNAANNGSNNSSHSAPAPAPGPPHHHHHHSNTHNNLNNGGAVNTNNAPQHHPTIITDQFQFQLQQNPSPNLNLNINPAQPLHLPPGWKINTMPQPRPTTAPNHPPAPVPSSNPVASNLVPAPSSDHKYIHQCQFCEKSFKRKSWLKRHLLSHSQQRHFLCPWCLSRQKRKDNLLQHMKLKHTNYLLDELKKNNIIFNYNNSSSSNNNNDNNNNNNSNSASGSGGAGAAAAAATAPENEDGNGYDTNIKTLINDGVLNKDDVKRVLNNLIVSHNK
# Test: PBM E-score (8-mer binding enrichment) (E-score (-0.5 to 0.5)); higher = stronger / more preferred TF binding; most listed sequences are background and not binding sites
# Conditions: protein concentration: 200 nM; construct: GST-full length
# Procedure: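 Universal 'all 10-mer' protein binding microarrays (Agilent AMADID 015681) probed with GST-tagged S. cerevisiae TFs (full-length or DBD) made by in vitro transcription/translation (PURExpress), about 100-200 nM. Bound TF was detected with fluorescent anti-GST. Each ungapped 8-mer (which stands for itself and its reverse complement) is scored by the PBM enrichment score (E-score), a modified Wilcoxon-Mann-Whitney statistic from -0.5 to +0.5, computed with the Universal PBM Analysis Suite. Scale: above 0.35 generally sequence-specific binding.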
row,Sequence,PBM E-score
1,AAATATCC,0.0319
2,CGGGTGGA,-0.0775
3,TCGGTTAA,0.0678
4,CTGCGAGC,-0.2
5,ACTGAGAC,-0.00296
6,ATGGCTTC,-0.153
7,ATTACGCC,0.102
8,CTCGATTC,-0.0008
9,GCAAGTAA,0.31
10,AACCGAAT,0.0425
11,ATCTGTCA,-0.136
12,AGAGGAGA,-0.23
13,CAACGAAC,0.0278
14,AGAAATTA,0.145
15,AACTACTT,0.0912
16,CAAGCGGG,-0.0609
17,GGGGTCAC,-0.401
18,GTGGAACA,-0.0281
19,CTGCCGGC,-0.246
20,CTACCTAC,0.188
21,CACAGGTA,0.352
22,ACCCTTCA,0.127
23,CCTTATAG,0.243
24,ACTAAGCC,-0.172
25,CCATATCG,-0.129

row,Sequence,PBM E-score
1,TAGATTGA,0.0705
2,TACCCACA,-0.107
3,GAAACAGA,-0.0175
4,CAATAACC,0.0521
5,ATGCCGGA,-0.181
6,GGCCGGTA,-0.0424
7,TAAGGGTA,-0.132
8,TCTCCCCA,-0.121
9,CATACCTA,-0.014
10,ACGTGCCG,0.144
11,CAATAGAG,-0.157
12,AGCACGGG,-0.166
13,ACCGAAGG,-0.147
14,CGCGTAGA,0.316
15,AGAAGTAT,0.102
16,GAGGTGGA,-0.182
17,GCCGAGGA,-0.00379
18,AGAAGGTC,-0.0584
19,GGAGCAGA,-0.313
20,CCCCCGGG,-0.199
21,TCGTGACA,-0.0171
22,ACCACAGC,-0.197
23,AACTCGGC,-0.0608
24,GGGTCCAC,-0.372
25,ACTGCAGA,-0.0584

row,Sequence,PBM E-score
1,CTGCGGAC,-0.128
2,CTAGTTAA,0.225
3,CTGGAAAA,-0.038
4,CGACAGAG,-0.205
5,AAGACTGG,-0.0478
6,CGAGTCCG,-0.196
7,TACTAAGA,-0.0572
8,AGATAGGC,0.235
9,TGGAGCCA,-0.163
10,CCTCGTCG,-0.0873
11,CAGGGGTC,-0.118
12,TCCTAGGA,0.0441
13,TGGGATAA,-0.0725
14,ACTTTACC,0.0687
15,TATGCACA,0.0239
16,GATATTCC,-0.156
17,GGCGCGTA,0.202
18,CCCCCCTA,-0.277
19,CGCATATA,-0.00057
20,ATGATTCC,-0.0953
21,GAGTCGAA,-0.0456
22,CCAGCATA,-0.186
23,ACACTTCA,0.0662
24,AGTCAAAA,0.0274
25,CTTCAGGA,-0.0384

row,Sequence,PBM E-score
1,AGAGCTCG,-0.0842
2,AGGCTTGC,0.17
3,GTCTCGGA,-0.131
4,CCTGATAG,-0.027
5,ATCGGTCC,-0.281
6,CGCTAAAA,0.103
7,GTGCGCAC,-0.0815
8,CCCATAGA,-0.197
9,AAGAGCAA,-0.223
10,ACATCGGT,-0.00649
11,AAGTGACG,0.0422
12,GAAAGTAA,0.133
13,ACCGCCAG,-0.0496
14,CTTCATGC,-0.135
15,AGCGTCAC,-0.224
16,AGATCAGG,-0.0288
17,GTTCTATA,0.0934
18,CTTGACCC,-0.0185
19,ACCTCAAG,-0.0329
20,CATTGAAC,0.124
21,TAAAGTAA,0.185
22,AATGACAT,0.158
23,CCATTTTC,-0.0477
24,AGTTATGC,-0.00809
25,ACAGCACC,-0.294

row,Sequence,PBM E-score
1,ACCGCCTA,-0.176
2,ACCAAGCA,-0.0877
3,ACAGCCGG,-0.0721
4,CATATTAA,0.151
5,GGTTTGGA,0.00084
6,CGCATGTA,0.356
7,CGTACAAG,0.183
8,CTAATTCA,0.0729
9,AGTTATAA,0.163
10,ATGTCGTG,0.226
11,CAGTGAAA,-0.0605
12,ATGTCTGA,-0.0191
13,ACTGTTAC,-0.0175
14,AAGCTCGA,-0.0643
15,GGTCAGCA,-0.0605
16,GCGTATAC,0.234
17,CCGCATAC,-0.159
18,ATCCAGCA,-0.0996
19,CGTTGTAC,0.167
20,AGGAGAAC,-0.0599
21,ATGGAGTA,-0.039
22,CGGGTCCC,-0.226
23,AATTCTGA,-0.0534
24,GTCCTCAA,0.00814
25,TAAGCACA,0.113

row,Sequence,PBM E-score
1,GTGAGGGA,-0.264
2,ATACACTC,0.0887
3,CTCAAGGC,0.23
4,CAACGTCG,0.0622
5,GACGCGGA,0.0003
6,ATGTGCTC,-0.0127
7,ATCCCATG,0.0443
8,AGTTGGGG,-0.163
9,CGCACATA,-0.146
10,CCAGGCCG,-0.168
11,AGAGAGCT,-0.194
12,CAAAAGGA,0.238
13,GACGAACA,0.00985
14,ATTCAAGA,-0.0536
15,CGCTAGTC,-0.413
16,GGCAGAAA,0.142
17,CTCGTCTA,-0.168
18,AAGTACAC,0.24
19,AAGCAATA,0.0951
20,ATAGGCCC,-0.0679
21,AACGGCTA,-0.0369
22,GTCCTCAC,-0.278
23,ACATTAAC,0.253
24,GTTTTTCA,0.144
25,CTCCTTAC,0.076

row,Sequence,PBM E-score
1,AGCGTCCT,-0.00078
2,AGTTCCGC,-0.12
3,ACGAGGAT,0.0893
4,ATCCAAAT,0.0987
5,TGACTCAA,0.0651
6,GAAAACCA,-0.00696
7,ATCGCATA,0.00354
8,ATGGGATA,-0.0934
9,GGTCCTTA,-0.152
10,AGATTCCG,-0.193
11,ACTGCTCA,-0.127
12,CCCTCTTC,-0.183
13,ATTCCCAA,-0.102
14,GCGGGCCC,-0.288
15,CAAAGGCC,-0.151
16,ACGGGCCA,-0.261
17,CGCCGGCA,-0.294
18,CCGACCCA,-0.264
19,GACTGTGC,-0.0543
20,CCCCTGCG,-0.0706
21,ACGCTGGC,-0.185
22,TTATGCAA,0.12

# From the supplement of paper PMC3334620
